Consider 57 sequences from PMC6451091.

Conditions in all cases: 20 mM HEPES pH 7.9, 100 mM NaCl, 1 mM DTT, 0.2 mg/mL BSA, 0.02% Triton X-100, 2% milk, 0.4 mg/mL salmon testes DNA; 1 h; temperature not stated; high values mean tight binding; double strand, one strand shown; sequences stand for … in GCCTAGCAC…GTGCTAGGTCTTGATTCGCTTGACGCTGCTG
In one test the target is PU.1 (IVT) (UniProt P17947). As to the kind of experiment: protein-binding microarray (PBM).
In test [1] the target is T1, FLI1 (endogenous, THP-1 nuclear extract) (UniProt Q01543).
T1 sequence: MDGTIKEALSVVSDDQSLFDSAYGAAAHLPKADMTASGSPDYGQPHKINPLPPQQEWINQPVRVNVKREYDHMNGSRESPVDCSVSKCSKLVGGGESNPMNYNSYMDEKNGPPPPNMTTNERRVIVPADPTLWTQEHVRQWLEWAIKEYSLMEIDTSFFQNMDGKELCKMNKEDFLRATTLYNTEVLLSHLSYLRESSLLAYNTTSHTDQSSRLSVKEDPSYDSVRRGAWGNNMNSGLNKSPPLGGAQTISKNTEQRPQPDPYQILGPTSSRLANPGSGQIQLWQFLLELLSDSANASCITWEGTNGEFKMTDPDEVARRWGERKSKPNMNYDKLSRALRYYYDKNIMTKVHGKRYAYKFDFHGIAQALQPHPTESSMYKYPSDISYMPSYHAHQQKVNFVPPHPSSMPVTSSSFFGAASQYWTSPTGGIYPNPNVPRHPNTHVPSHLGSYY
As to the kind of experiment: nuclear extract protein-binding microarray (nextPBM).

The test system of test [2] is PU.1 (endogenous, THP-1 nuclear extract) + IRF8 (endogenous, THP-1 nuclear extract). Described as above.

The other results are listed elsewhere or left out. For part of these data: At the low end of the ranking the order means little. For part of these data: Measured with an extract: partners may take part in the binding.

Take CAGGGAAGGAAGTGAAACTA: the binding signal in the test with PU.1 (IVT) was 2.23 z-score; in test [1], 2.6 z-score; in test [2] it was 61.4 z-score.

Consider TGATAGGAGAAGTGAAACCT, for which the binding signal came to 1.44 z-score in the test with PU.1 (IVT), 0.768 z-score in test [1] and 31.6 z-score in test [2].

Consider GATAAGAGGAACCGAAAGCT, for which the binding signal with PU.1 (IVT) was found to be 2.77 z-score; in test [1], 1.51 z-score; in test [2], 19.3 z-score.

With CTGGTAGGGAACTGAAACTC, the binding signal with PU.1 (IVT) worked out at 1.37 z-score; in test [1] it was 0.183 z-score; in test [2], 13.7 z-score.

On to AGAAAGGGGAACTGAAACTC, for which the binding signal amounted to 6.15 z-score with PU.1 (IVT), 3.38 z-score in test [1] and 47.2 z-score in test [2].

Take CTGGCAGGCAACTGAAACTC: the binding signal is -0.282 z-score in the test with PU.1 (IVT), -0.469 z-score in test [1] and 7.6 z-score in test [2].

Regarding CTGGCAGGGAACTGAAACAC, the binding signal is 0.334 z-score with PU.1 (IVT), -0.223 z-score in test [1] and -0.415 z-score in test [2].

As to CTGGCAGGGAACCGAAACTC, the results for the binding signal (with PU.1 (IVT); in test [1]; in test [2]) were 0.141 z-score, 0.33 z-score and 50.1 z-score, respectively.

For the sequence AAAAAAGGGAAATGAAACTA, the binding signal with PU.1 (IVT) is 4.72 z-score; in test [1], 3.09 z-score; in test [2], 53.9 z-score.

As to GATAAGAGGAACTGACAGCT, the figures for the binding signal (in the test with PU.1 (IVT); in test [1]; in test [2]) were 4 z-score, 1.55 z-score and -0.164 z-score, respectively.

In the case of GTTGTGAGGAAGTGAAAATA, the results for the binding signal (with PU.1 (IVT); in test [1]; in test [2]) were 4.1 z-score, 2.06 z-score and 1.6 z-score, respectively.

In the case of TTAATCAGGAACTGAAACTT, the results for the binding signal (with PU.1 (IVT); in test [1]; in test [2]) were 2.27 z-score, 1.51 z-score and 18.6 z-score, respectively.

In the case of TAAAAAAGGAAATGAAAGTA, the results for the binding signal (in the test with PU.1 (IVT); in test [1]; in test [2]) were 2.77 z-score, 2.51 z-score and 18.5 z-score, respectively.

Regarding AAGGTGAGGAACTGAAACTT, the figures for the binding signal (in the test with PU.1 (IVT); in test [1]; in test [2]) were 2.16 z-score, 1.15 z-score and 18.1 z-score, respectively.

Turning to TCAACATGGAAGTGAAAGTC, the binding signal came to 1.82 z-score with PU.1 (IVT), 1.23 z-score in test [1] and 7.55 z-score in test [2].

Regarding CTGCCCGGGAAGTGAAAGCA, the binding signal in the test with PU.1 (IVT) stood at 0.495 z-score; in test [1], 1.5 z-score; in test [2], 4.77 z-score.

GTGGGAGGGAAGTGAAACTC: the binding signal in the test with PU.1 (IVT) is 2.37 z-score; in test [1], 2.32 z-score; in test [2], 34.9 z-score.

On to ATTTTAGGGAACTGAAAGCC, for which the results for the binding signal (with PU.1 (IVT); in test [1]; in test [2]) were 4.2 z-score, 1.19 z-score and 3.24 z-score, respectively.

For the sequence TGGCAGACGAAGTGAAACTA, the results for the binding signal (in the test with PU.1 (IVT); in test [1]; in test [2]) were -0.497 z-score, 0.0264 z-score and 53.1 z-score, respectively.

Regarding TGAGAGGAGAAGTGATACCT, the binding signal in the test with PU.1 (IVT) is 1.44 z-score; in test [1], 0.376 z-score; in test [2], 2.35 z-score.

As for AAAAAACGGAAATGAAAGTA, the binding signal with PU.1 (IVT) was 3.75 z-score; in test [1], 3.79 z-score; in test [2], 22.1 z-score.

For the sequence TGCCAGAGGAAGTGAAACTA, the binding signal with PU.1 (IVT) worked out at 2.82 z-score; in test [1], 3.59 z-score; in test [2] it was 54.7 z-score.

Consider CTGCCAGGGAAGTGAAAGAA, for which the binding signal with PU.1 (IVT) came to 1.59 z-score; in test [1] it was 0.878 z-score; in test [2], 2.05 z-score.

For TCGCAGAGGAAGTGAAACTA, the binding signal was 3.29 z-score in the test with PU.1 (IVT), 3.6 z-score in test [1] and 59.2 z-score in test [2].

For TGGCAGAGGTAGTGAAACTA, the binding signal with PU.1 (IVT) was 0.469 z-score; in test [1], 0.362 z-score; in test [2], 26.4 z-score.

As to TGAAAGCAGAAGTGAAACTG, the binding signal came out at 4.25 z-score with PU.1 (IVT), 2.98 z-score in test [1] and 65.3 z-score in test [2].

Take AAATAAAGGAAGTGAAACAG: the binding signal was 5.01 z-score with PU.1 (IVT), 2.75 z-score in test [1] and 8.59 z-score in test [2].

Take AAAATCAGGAACTGAAACTA: the binding signal was 3.95 z-score in the test with PU.1 (IVT), 2.51 z-score in test [1] and 47.9 z-score in test [2].

In the case of AGAAAAAGGAAATGAAAGTA, the binding signal came out at 2.35 z-score with PU.1 (IVT), 2.45 z-score in test [1] and 12.3 z-score in test [2].

On to CGGCAGAGGAAGTGAAACTA, for which the binding signal with PU.1 (IVT) stood at 3.19 z-score; in test [1], 3.72 z-score; in test [2] it was 70.7 z-score.

Consider GAAAAGAGGATGTGAAACTT, for which the figures for the binding signal (with PU.1 (IVT); in test [1]; in test [2]) were 3.95 z-score, 3.02 z-score and 48 z-score, respectively.

Regarding GATAAGAGGACCTGAAAGCT, the figures for the binding signal (in the test with PU.1 (IVT); in test [1]; in test [2]) were -0.213 z-score, -0.443 z-score and 0.213 z-score, respectively.

On to TGAGAGGAGAAGTGAAAACT, for which the binding signal in the test with PU.1 (IVT) came out at 1.24 z-score; in test [1], 0.404 z-score; in test [2], 0.698 z-score.

In the case of CTGCCAGGGATGTGAAAGCA, the results for the binding signal (with PU.1 (IVT); in test [1]; in test [2]) were -0.469 z-score, 0.109 z-score and 4.06 z-score, respectively.

Regarding GATAAGAGGAACTGATAGCT, the binding signal with PU.1 (IVT) stood at 3.9 z-score; in test [1], 1.72 z-score; in test [2] it was 2.15 z-score.

In the case of CAGAAGGGGAAGCGAAACTG, the binding signal with PU.1 (IVT) was determined as 3.03 z-score; in test [1], 2.54 z-score; in test [2] it was 58.3 z-score.

Consider CTACCAGGGAAGTGAAAGCA, for which the binding signal is 1.25 z-score with PU.1 (IVT), 0.763 z-score in test [1] and 4.34 z-score in test [2].

In the case of TGGAAAAGGAAGTGAAACCA, the binding signal with PU.1 (IVT) stood at 3.65 z-score; in test [1], 3.5 z-score; in test [2], 55.2 z-score.

Take AGAAAGAGGAAGAGAAACTT: the binding signal with PU.1 (IVT) is 4.63 z-score; in test [1], 2.28 z-score; in test [2], 11.7 z-score.

Regarding CTGCCAGGGAAGTGAAAGCT, the binding signal is 0.857 z-score with PU.1 (IVT), 0.735 z-score in test [1] and 3.36 z-score in test [2].

For the sequence AAAAAGAAGAAGTGAAACTA, the results for the binding signal (with PU.1 (IVT); in test [1]; in test [2]) were 4.43 z-score, 2.8 z-score and 70.6 z-score, respectively.

As to CTGCCAGGGAAGTAAAAGCA, the binding signal with PU.1 (IVT) was 0.732 z-score; in test [1], 0.493 z-score; in test [2] it was -2.47 z-score.

Consider CTGCCAGGTAAGTGAAAGCA, for which the values for the binding signal (in the test with PU.1 (IVT); in test [1]; in test [2]) were -0.606 z-score, -0.253 z-score and 2.35 z-score, respectively.

Consider GGTAAGAGGAACTGAAAGCT, for which the binding signal with PU.1 (IVT) worked out at 3.88 z-score; in test [1] it was 1.92 z-score; in test [2], 4.79 z-score.

With CTGGCGGGGAACTGAAACTC, the binding signal in the test with PU.1 (IVT) was -0.144 z-score; in test [1], -0.112 z-score; in test [2], 8.88 z-score.

For ACAAAAAGGAAATGAAAGTA, the binding signal with PU.1 (IVT) came to 1.66 z-score; in test [1], 2.67 z-score; in test [2] it was 12.8 z-score.

Take GATAAGAGGAACTGAAGGCT: the binding signal was 3.86 z-score in the test with PU.1 (IVT), 1.39 z-score in test [1] and 1.5 z-score in test [2].

For the sequence CTGGCAGGGAACTGAGACTC, the binding signal in the test with PU.1 (IVT) was 0.534 z-score; in test [1], -0.688 z-score; in test [2], 0.856 z-score.

For ACGACGTGGAAGTGAAACTT, the binding signal was 1.57 z-score in the test with PU.1 (IVT), 1.1 z-score in test [1] and 31.4 z-score in test [2].

With ACAATGGAGAAGTGAAACTG, the binding signal was found to be 2.41 z-score in the test with PU.1 (IVT), 1.27 z-score in test [1] and 53 z-score in test [2].

Take AAAAAAAGGAAACGAAAGTA: the binding signal with PU.1 (IVT) came out at 2.37 z-score; in test [1] it was 2.04 z-score; in test [2], 44.4 z-score.

TGAAACAGGAAGTTAAACCA: the binding signal was found to be 6.84 z-score in the test with PU.1 (IVT), 5.15 z-score in test [1] and 1.56 z-score in test [2].

As to CAAAATGGGAAGTGAAACTT, the binding signal worked out at 5.62 z-score with PU.1 (IVT), 3.02 z-score in test [1] and 61 z-score in test [2].

For the sequence AAGAGGCAGAACTGAAACTC, the binding signal is -0.0493 z-score in the test with PU.1 (IVT), -0.535 z-score in test [1] and 10.2 z-score in test [2].

Regarding CTCCCAGGGAAGTGAAAGCA, the results for the binding signal (in the test with PU.1 (IVT); in test [1]; in test [2]) were 1.17 z-score, 0.794 z-score and 4.28 z-score, respectively.

As for TGAGAGGAGAAGTTAAACCT, the values for the binding signal (with PU.1 (IVT); in test [1]; in test [2]) were 1.46 z-score, 0.365 z-score and -0.786 z-score, respectively.

TGAAACAGGAAGTGTAACCA: the binding signal came to 6.22 z-score with PU.1 (IVT), 5.31 z-score in test [1] and 2.73 z-score in test [2].
